T1: VEGF (UniProt P15692-4 27-191)
T1 sequence (looked up): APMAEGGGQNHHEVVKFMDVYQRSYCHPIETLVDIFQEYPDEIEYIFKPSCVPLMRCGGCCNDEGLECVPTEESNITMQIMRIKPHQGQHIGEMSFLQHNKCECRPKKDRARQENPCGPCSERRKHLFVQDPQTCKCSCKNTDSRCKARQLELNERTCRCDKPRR


Target: T1, VEGF
Assay: cell-based or functional assay

Row | IC50 (nM) in HUVEC proliferation assay [nM] | Binder
1 | 7.77 | R-SBL3 (bispecific antibody, human IgG1, kappa) heavy 1: [letters of about 120 residues not shown]ASPREPQVCTLPPSREEMTKNQVSLSCAVKGFYPSDIAVEWESNGQPENNYKTTPPVLDSDGSFFLVSKLTVDKSRWQQGNVFSCSVMHEALHNHYTQKSLSLSPGKGGGGSGGGGSGGGGSASTKGPSVFPLAPSSRSTSESTAALGCLVKDYFPEPVTVSWNSGALTSGVHTFPAVLQSSGLYSLSSVVTVPSSSLGTKTYTCNVDHKPSNTKVDKRV[letters of human IgG1 Fc with changes not shown] light 1: [letters of about 100 residues not shown]RTPREPQVYTLPPCREEMTKNQVSLWCLVKGFYPSDIAVEWESNGQPENNYKTTPPVLDSDGSFFLYSKLTVDKSRWQQGNVFSCSVMHEALHNHYTQKSLSLSPGKGGGGSGGGGSGGGGSRTVAAPSVFIFPPSDEQLKSGTASVVCLLNNFYPREAKVQWKVDNALQSGNSQESVTEQDSKDSTYSLSSTLTLSKADYEKHKVYACEVTHQGLSSPVTKSFNRGES heavy 2: EVQLVESGGGLVQPGGSLRLSCAASGYTFTNYGMNWVRQAPGKGLEWVGWINTYTGEPTYAADFKRRFTFSLDTSKSTAYLQMNSLRAEDTAVYYCAKYPHYYGSSHWYFDVWGQGTLVTVSSASTKGPSVFPLAPSSKSTSGGTAALGCLVKDYFPEPVTVSWNSGALTSGVHTFPAVLQSSGLYSLSSVVTVPSSSLGTQTYICNVNHKPSNTKVDKKV[letters of human IgG1 Fc with changes not shown] light 2: DIQMTQSPSSLSASVGDRVTITCSASQDISNYLNWYQQKPGKAPKVLIYFTSSLHSGVPSRFSGSGSGTDFTLTISSLQPEDFATYYCQQYSTVPWTFGQGTKVEIKRTVAAPSVFIFPPSDEQLKSGTASVVCLLNNFYPREAKVQWKVDNALQSGNSQESVTEQDSKDSTYSLSSTLTLSKADYEKHKVYACEVTHQGLSSPVTKSFNRGEC
2 | 5.03 | R-SBL2 (bispecific antibody, human IgG1, kappa) heavy 1: [letters of about 120 residues not shown]ASPREPQVCTLPPSREEMTKNQVSLSCAVKGFYPSDIAVEWESNGQPENNYKTTPPVLDSDGSFFLVSKLTVDKSRWQQGNVFSCSVMHEALHNHYTQKSLSLSPGKGGGGSASTKGPSVFPLAPSSRSTSESTAALGCLVKDYFPEPVTVSWNSGALTSGVHTFPAVLQSSGLYSLSSVVTVPSSSLGTKTYTCNVDHKPSNTKVDKRV[letters of human IgG1 Fc with changes not shown] light 1: [letters of about 100 residues not shown]RTPREPQVYTLPPCREEMTKNQVSLWCLVKGFYPSDIAVEWESNGQPENNYKTTPPVLDSDGSFFLYSKLTVDKSRWQQGNVFSCSVMHEALHNHYTQKSLSLSPGKGGGGSRTVAAPSVFIFPPSDEQLKSGTASVVCLLNNFYPREAKVQWKVDNALQSGNSQESVTEQDSKDSTYSLSSTLTLSKADYEKHKVYACEVTHQGLSSPVTKSFNRGES heavy 2: EVQLVESGGGLVQPGGSLRLSCAASGYTFTNYGMNWVRQAPGKGLEWVGWINTYTGEPTYAADFKRRFTFSLDTSKSTAYLQMNSLRAEDTAVYYCAKYPHYYGSSHWYFDVWGQGTLVTVSSASTKGPSVFPLAPSSKSTSGGTAALGCLVKDYFPEPVTVSWNSGALTSGVHTFPAVLQSSGLYSLSSVVTVPSSSLGTQTYICNVNHKPSNTKVDKKV[letters of human IgG1 Fc with changes not shown] light 2: DIQMTQSPSSLSASVGDRVTITCSASQDISNYLNWYQQKPGKAPKVLIYFTSSLHSGVPSRFSGSGSGTDFTLTISSLQPEDFATYYCQQYSTVPWTFGQGTKVEIKRTVAAPSVFIFPPSDEQLKSGTASVVCLLNNFYPREAKVQWKVDNALQSGNSQESVTEQDSKDSTYSLSSTLTLSKADYEKHKVYACEVTHQGLSSPVTKSFNRGEC

The next lines start with the binder.

Row | Binder | IC50 (nM) in HUVEC proliferation assay [nM]
3 | Q-SBL9 (bispecific antibody, human IgG1, kappa) heavy 1: [letters of about 120 residues not shown]ASPREPQVYTLPPCREEMTKNQVSLSCAVKGFYPSDIAVEWESNGQPENNYKTTPPVLDSDGSFFLVSKLTVDKSRWQQGNVFSCSVMHEALHNHYTQKSLSLSPGKGGGGSASTKGPSVFPLAPSSKSTSGGTAALGCLVKDYFPEPVTVSWNSGALTSGVHTFPAVLQSSGLYSLSSVVTVPSSSLGTQTYICNVNHKPSNTKVDKKVEPKSSDKTHTCPPCPAPELLGGPSVFLFPPKPKDTLMISRTPEVTCVVVDVSHEDPEVKFNWYVDGVEVHNAKTKPREEQYNSTYRVVSVLTVLHQDWLNGKEYKCKVSNKALPAPIEKTISKAKGQPREPQVCTLPPSREEMTKNQVSLSCAVKGFYPSDIAVEWESNGQPENNYKTTPPVLDSDGSFFLVSKLTVDKSRWQQGNVFSCSVMHEALHNHYTQKSLSLSPGK light 1: [letters of about 100 residues not shown]RTPREPQVCTLPPSREEMTKNQVSLWCLVKGFYPSDIAVEWESNGQPENNYKTTPPVLDSDGSFFLYSKLTVDKSRWQQGNVFSCSVMHEALHNHYTQKSLSLSPGKGGGGSRTVAAPSVFIFPPSDEQLKSGTASVVCLLNNFYPREAKVQWKVDNALQSGNSQESVTEQDSKDSTYSLSSTLTLSKADYEKHKVYACEVTHQGLSSPVTKSFNRGES heavy 2: EVQLVESGGGLVQPGGSLRLSCAASGYTFTNYGMNWVRQAPGKGLEWVGWINTYTGEPTYAADFKRRFTFSLDTSKSTAYLQMNSLRAEDTAVYYCAKYPHYYGSSHWYFDVWGQGTLVTVSSASTKGPSVFPLAPSSKSTSGGTAALGCLVKDYFPEPVTVSWNSGALTSGVHTFPAVLQSSGLYSLSSVVTVPSSSLGTQTYICNVNHKPSNTKVDKKV[letters of human IgG1 Fc with changes not shown] light 2: DIQMTQSPSSLSASVGDRVTITCSASQDISNYLNWYQQKPGKAPKVLIYFTSSLHSGVPSRFSGSGSGTDFTLTISSLQPEDFATYYCQQYSTVPWTFGQGTKVEIKRTVAAPSVFIFPPSDEQLKSGTASVVCLLNNFYPREAKVQWKVDNALQSGNSQESVTEQDSKDSTYSLSSTLTLSKADYEKHKVYACEVTHQGLSSPVTKSFNRGEC | 5.48
4 | Q-SBL3 (bispecific antibody, human IgG1, kappa) heavy 1: [letters of about 120 residues not shown]ASPREPQVCTLPPSREEMTKNQVSLSCAVKGFYPSDIAVEWESNGQPENNYKTTPPVLDSDGSFFLVSKLTVDKSRWQQGNVFSCSVMHEALHNHYTQKSLSLSPGKGGGGSGGGGSGGGGSASTKGPSVFPLAPSSKSTSGGTAALGCLVKDYFPEPVTVSWNSGALTSGVHTFPAVLQSSGLYSLSSVVTVPSSSLGTQTYICNVNHKPSNTKVDKKV[letters of human IgG1 Fc with changes not shown] light 1: [letters of about 100 residues not shown]RTPREPQVYTLPPCREEMTKNQVSLWCLVKGFYPSDIAVEWESNGQPENNYKTTPPVLDSDGSFFLYSKLTVDKSRWQQGNVFSCSVMHEALHNHYTQKSLSLSPGKGGGGSGGGGSGGGGSRTVAAPSVFIFPPSDEQLKSGTASVVCLLNNFYPREAKVQWKVDNALQSGNSQESVTEQDSKDSTYSLSSTLTLSKADYEKHKVYACEVTHQGLSSPVTKSFNRGES heavy 2: EVQLVESGGGLVQPGGSLRLSCAASGYTFTNYGMNWVRQAPGKGLEWVGWINTYTGEPTYAADFKRRFTFSLDTSKSTAYLQMNSLRAEDTAVYYCAKYPHYYGSSHWYFDVWGQGTLVTVSSASTKGPSVFPLAPSSKSTSGGTAALGCLVKDYFPEPVTVSWNSGALTSGVHTFPAVLQSSGLYSLSSVVTVPSSSLGTQTYICNVNHKPSNTKVDKKV[letters of human IgG1 Fc with changes not shown] light 2: DIQMTQSPSSLSASVGDRVTITCSASQDISNYLNWYQQKPGKAPKVLIYFTSSLHSGVPSRFSGSGSGTDFTLTISSLQPEDFATYYCQQYSTVPWTFGQGTKVEIKRTVAAPSVFIFPPSDEQLKSGTASVVCLLNNFYPREAKVQWKVDNALQSGNSQESVTEQDSKDSTYSLSSTLTLSKADYEKHKVYACEVTHQGLSSPVTKSFNRGEC | 3.47
5 | Q-SBL2 (bispecific antibody, human IgG1, kappa) heavy 1: [letters of about 120 residues not shown]ASPREPQVCTLPPSREEMTKNQVSLSCAVKGFYPSDIAVEWESNGQPENNYKTTPPVLDSDGSFFLVSKLTVDKSRWQQGNVFSCSVMHEALHNHYTQKSLSLSPGKGGGGSASTKGPSVFPLAPSSKSTSGGTAALGCLVKDYFPEPVTVSWNSGALTSGVHTFPAVLQSSGLYSLSSVVTVPSSSLGTQTYICNVNHKPSNTKVDKKV[letters of human IgG1 Fc with changes not shown] light 1: [letters of about 100 residues not shown]RTPREPQVYTLPPCREEMTKNQVSLWCLVKGFYPSDIAVEWESNGQPENNYKTTPPVLDSDGSFFLYSKLTVDKSRWQQGNVFSCSVMHEALHNHYTQKSLSLSPGKGGGGSRTVAAPSVFIFPPSDEQLKSGTASVVCLLNNFYPREAKVQWKVDNALQSGNSQESVTEQDSKDSTYSLSSTLTLSKADYEKHKVYACEVTHQGLSSPVTKSFNRGES heavy 2: EVQLVESGGGLVQPGGSLRLSCAASGYTFTNYGMNWVRQAPGKGLEWVGWINTYTGEPTYAADFKRRFTFSLDTSKSTAYLQMNSLRAEDTAVYYCAKYPHYYGSSHWYFDVWGQGTLVTVSSASTKGPSVFPLAPSSKSTSGGTAALGCLVKDYFPEPVTVSWNSGALTSGVHTFPAVLQSSGLYSLSSVVTVPSSSLGTQTYICNVNHKPSNTKVDKKV[letters of human IgG1 Fc with changes not shown] light 2: DIQMTQSPSSLSASVGDRVTITCSASQDISNYLNWYQQKPGKAPKVLIYFTSSLHSGVPSRFSGSGSGTDFTLTISSLQPEDFATYYCQQYSTVPWTFGQGTKVEIKRTVAAPSVFIFPPSDEQLKSGTASVVCLLNNFYPREAKVQWKVDNALQSGNSQESVTEQDSKDSTYSLSSTLTLSKADYEKHKVYACEVTHQGLSSPVTKSFNRGEC | 5.01

Reference: patent US20250277055A1 (SAMSUNG BIOLOGICS, published 2025)
